“And” between values parts separate entries of the source, which are not always exact repeats. Equal entries are not always repeated.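 Protocol summary: plate cells (96-well), add compound at 5 concentrations, incubate 48 h, interpolate endpoints linearly. GI50 = concentration required for 50% inhibition of growth. TGI is the concentration that stops growth completely.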
System: NCI-H322M lung
Test: NCI-60 cell line screen, 48 h

SMILES | TGI | GI50
CC1(C)OC1COc1c2occc2cc2ccc(=O)oc12 (stereo not given) | > 100 µM | 
CCCCCCCCCCCCCCCC[N+](C)(C)Cc1ccccc1 | 37 µM and 4.55 µM | 4.54 µM and 2.2 µM
Nc1ccccc1SC(CC(=O)c1ccccc1)c1cccc([N+](=O)[O-])c1 (stereo not given) | 31.9 µM | 16.7 µM
CC(=O)N(C(=O)CC(=O)N1N=C(c2ccccc2)C(N=Nc2ccccc2[N+](=O)[O-])C1=O)c1ccc(Cl)cc1 (stereo not given) | > 10 µM | 
COC(=O)c1c(C)nc2c1cc(O)c1[nH]c(C)c(C)nc12 | > 100 µM | 
O=C(NCc1ccccc1)c1n[nH][nH]c1=O | > 100 µM | 
O=C1C=CC(=O)c2nc3c(cc21)CCC3 | > 100 µM | 
COC(=O)CC(c1ccccc1)C1(c2ccccc2)SCCS1 (stereo not given) | > 290 µM | 
O=C(/C=C/c1ccccc1)C[C@@H](O)C[C@@H]1CC=CC(=O)O1 | 27.1 µM | 
Cc1csc(-c2nnc(Nc3ccc(Oc4ncccc4-c4ccnc(N)n4)cc3)c3ccccc23)c1 | > 100 µM | 5.86 µM
O=C(O)c1ccc2c(c1C(=O)O)C(=O)OC2(c1ccc(O)cc1)c1ccc(O)cc1 | > 100 µM | 
CCOC(=O)C1=C(C)N(c2ccc(F)cc2F)[C@]2(C#N)C(O)=C(Cl)C(Cl)=C(O)[C@]12C#N | > 100 µM | > 100 µM
O=C(/C(=C/c1ccc([N+](=O)[O-])cc1)SCc1ccccc1)c1ccc(Cl)cc1 | 26.5 µM | 13.3 µM
COc1ccc(-c2[nH]c3c4c(nc5c(c24)C(=O)CC(C)(C)C5)CC(C)(C)C3)cc1 | > 100 µM | 
Cc1cccc(Cn2c3c(c4cc(O)ccc42)C(=O)c2ccccc2C3=O)c1 | > 100 µM | 
CC1=C2C(=C[C@@](C)(CO)[C@@H]2O)C(=O)[C@](C)(O)C12CC2 | 0.0542 µM and 0.0632 µM | 
Nc1c(-c2ccc(Cl)c(Cl)c2)c2ccc([N+](=O)[O-])cc2c(=O)n1-c1nc2ccccc2s1 | 17 µM | 
Cc1cc(-c2nc3ccc(F)cc3s2)ccc1NC(=O)[C@H](C)N | 21.9 µM | 
O=C(Nc1ccccc1-c1nn(C(=S)Nc2ccccc2)c(=S)n(C(=S)Nc2ccccc2)c1=O)C(F)(F)F | > 85.9 µM | 
Cc1ccc(NC(=O)c2ccc(OP(=O)(O)Nc3ccc(C)cc3)cc2)cc1 | > 100 µM | 

SMILES | TGI | GI50
N#CC(NCc1cccc(CNC(C#N)c2ccccc2)c1)c1ccccc1 (stereo not given) | > 100 µM | 
CC(=O)O/N=C(/C)c1ccccc1O | > 100 µM | 
CC(C)[C@@H]1C=C2CC[C@H]3[C@](C)(CN)CCC[C@]3(C)[C@H]2CC1 | 4.13 µM | 1.98 µM
CC(=O)OCCOCNC(=S)N/N=C(\C)c1cnccn1 | > 100 µM | 
C=C(C)CCOC(c1ccccc1)(c1ccccc1)c1ccccc1 | > 100 µM | 
C/C(=C\CBr)CCC(Br)C(C)(C)Br (stereo not given) | > 100 µM | 
Cc1ccc(-c2csc(=Nc3ccccc3)n2NC(=O)c2ccncc2)cc1 | > 100 µM | 
Oc1ccc(Cc2cc(Cc3ccc(O)cc3)cc(Cc3ccc(O)cc3)c2)cc1 | > 50 µM | 
CC(=O)Oc1cccc2c1C(=O)CCCC2 | > 100 µM | 
COc1ccc(C)cc1-c1cc(Sc2ccccc2)c(-c2cc(C)ccc2OC)o1 | > 31.6 µM | 
CCCCCCCCCCCCC(O)c1ccc(C#CCCCCCCCCCO)o1 (stereo not given) | 37.9 µM | 21 µM
c1ccc2c3[nH]c(c2c1)=Nc1ccc(cc1)-c1nc2cc(ccc2o1)N=c1[nH]c(c2ccccc12)=Nc1ccc2nc(oc2c1)-c1ccc(cc1)N=3 | > 100 µM | 
C[C@]12CCC3C4=C(CCC3C1CCC2=O)C(=O)[C@H]1O[C@H]1C4=O (stereo not given in full) | 30.8 µM | 
Nc1nc2c(c(-c3cccc(Cl)c3)n1)COC/C2=C\c1cccc(Cl)c1 | > 100 µM | 
C=CC1(CC/C(=C\[N+](=O)[O-])c2ccc(OC)c(OC)c2)OCC(C)(C)CO1 | 43.1 µM | 
COc1cccc(C(=O)NC(c2ccc(C)cc2)c2cc(Cl)c3cccnc3c2O)c1 (stereo not given) | 27.3 µM | 0.617 µM
Cn1c2ccc3cc2c(=S)c2cc(ccc21)OCCOCCOCCOCCOCCOCCO3 | > 10 µM | 
O=C1C=C[C@@H](COC2OC(CO)C(O)C(O)C2O)O1 (stereo not given in full) | 35.1 µM and 29.3 µM | 
COc1ccc2[nH]cc(/C=C(/C)c3ccncc3)c2c1 | > 100 µM | 14 µM
Nc1n[nH]c2cc(F)c([C@@H]3Nc4ccc5[nH]ncc5c4[C@H]4C5CCC(C5)[C@@H]34)cc12 (stereo not given in full) | > 50 µM | 0.365 µM
